Some of the results follow.
Tests used:
Assay in all cases: glycan array binding signal (z-score within array); higher = stronger binding
Conditions in all cases: glycan notation: IUPAC condensed, linker removed
[1] = biological target: Gal(b1-4)GlcNAc(b1-3)Gal(b1-4)GlcNAc(b1-2)[Gal(b1-4)GlcNAc(b1-3)Gal(b1-4)GlcNAc(b1-6)]Man(a1-6)[Gal(b1-4)GlcNAc(b1-3)Gal(b1-4)GlcNAc(b1-2)Man(a1-3)]Man(b1-4)GlcNAc(b1-4)GlcNAc
Outline: (§1)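 Arrays were curated from the Consortium for Functional Glycomics database, 3228 in total, and kept only where the protein sequence was available. Binding is expressed as a within-array Z-score. This score was averaged across arrays of the same protein sequence at different concentrations or buffers and across linkers, and negative values can be read as non-binding.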

[2] = biological target: Gal(b1-4)GlcNAc(b1-3)Gal(b1-4)GlcNAc(b1-2)[Gal(b1-4)GlcNAc(b1-3)Gal(b1-4)GlcNAc(b1-6)]Man(a1-6)[Gal(b1-4)GlcNAc(b1-3)Gal(b1-4)GlcNAc(b1-2)Man(a1-3)]Man(b1-4)GlcNAc(b1-4)[Fuc(a1-6)]GlcNAc
Outline: as §1

[3] = biological target: Gal(b1-4)GlcNAc(b1-3)Gal(b1-4)GlcNAc(b1-3)Gal(b1-4)GlcNAc
Outline: as §1

[4] = biological target: Gal(b1-4)GlcNAc(b1-3)Gal(b1-4)GlcNAc(b1-3)Gal(b1-4)GlcNAc(b1-2)Man(a1-3)[Gal(b1-4)GlcNAc(b1-3)Gal(b1-4)GlcNAc(b1-3)Gal(b1-4)GlcNAc(b1-2)Man(a1-6)]Man(b1-4)GlcNAc(b1-4)GlcNAc
Outline: as §1

[5] = biological target: Gal(b1-4)GlcNAc(b1-3)Gal(b1-4)GlcNAc(b1-3)Gal(b1-4)GlcNAc(b1-2)Man(a1-3)[Gal(b1-4)GlcNAc(b1-3)Gal(b1-4)GlcNAc(b1-3)Gal(b1-4)GlcNAc(b1-2)Man(a1-6)]Man(b1-4)GlcNAc(b1-4)[Fuc(a1-6)]GlcNAc
Outline: as §1

[6] = biological target: Gal(b1-4)GlcNAc(b1-3)Gal(b1-4)GlcNAc(b1-3)Gal(b1-4)GlcNAc(b1-2)[Gal(b1-4)GlcNAc(b1-3)Gal(b1-4)GlcNAc(b1-3)Gal(b1-4)GlcNAc(b1-6)]Man(a1-6)[Gal(b1-4)GlcNAc(b1-3)Gal(b1-4)GlcNAc(b1-3)Gal(b1-4)GlcNAc(b1-2)Man(a1-3)]Man(b1-4)GlcNAc(b1-4)[Fuc(a1-6)]GlcNAc
Outline: as §1

[7] = biological target: Gal(b1-4)GlcNAc(b1-3)Gal(b1-4)GlcNAc(b1-3)Gal(b1-4)GlcNAc(b1-3)Gal(b1-4)GlcNAc(b1-2)Man(a1-3)[Gal(b1-4)GlcNAc(b1-3)Gal(b1-4)GlcNAc(b1-3)Gal(b1-4)GlcNAc(b1-3)Gal(b1-4)GlcNAc(b1-2)Man(a1-6)]Man(b1-4)GlcNAc(b1-4)GlcNAc
Outline: as §1

[8] = biological target: Gal(b1-4)GlcNAc(b1-3)Gal(b1-4)GlcNAc(b1-3)Gal(b1-4)GlcNAc(b1-3)Gal(b1-4)GlcNAc(b1-2)Man(a1-3)[Gal(b1-4)GlcNAc(b1-3)Gal(b1-4)GlcNAc(b1-3)Gal(b1-4)GlcNAc(b1-3)Gal(b1-4)GlcNAc(b1-2)Man(a1-6)]Man(b1-4)GlcNAc(b1-4)[Fuc(a1-6)]GlcNAc
Outline: as §1

[9] = biological target: Gal(b1-4)GlcNAc(b1-3)Gal(b1-4)GlcNAc(b1-3)Gal(b1-4)GlcNAc(b1-3)Gal(b1-4)GlcNAc(b1-2)[Gal(b1-4)GlcNAc(b1-3)Gal(b1-4)GlcNAc(b1-3)Gal(b1-4)GlcNAc(b1-3)Gal(b1-4)GlcNAc(b1-6)]Man(a1-6)[Gal(b1-4)GlcNAc(b1-3)Gal(b1-4)GlcNAc(b1-3)Gal(b1-4)GlcNAc(b1-3)Gal(b1-4)GlcNAc(b1-2)Man(a1-3)]Man(b1-4)GlcNAc(b1-4)[Fuc(a1-6)]GlcNAc
Outline: as §1

[10] = biological target: Gal(b1-4)GlcNAc(b1-3)Gal(b1-4)GlcNAc(b1-3)Gal(b1-4)GlcNAc(b1-3)Gal(b1-4)GlcNAc(b1-3)Gal(b1-4)GlcNAc(b1-2)Man(a1-3)[Gal(b1-4)GlcNAc(b1-3)Gal(b1-4)GlcNAc(b1-3)Gal(b1-4)GlcNAc(b1-3)Gal(b1-4)GlcNAc(b1-3)Gal(b1-4)GlcNAc(b1-2)Man(a1-6)]Man(b1-4)GlcNAc(b1-4)GlcNAc
Outline: as §1

[11] = biological target: Gal(b1-4)GlcNAc(b1-3)Gal(b1-4)GlcNAc(b1-3)Gal(b1-4)GlcNAc(b1-3)Gal(b1-4)GlcNAc(b1-3)Gal(b1-4)GlcNAc(b1-2)Man(a1-3)[Gal(b1-4)GlcNAc(b1-3)Gal(b1-4)GlcNAc(b1-3)Gal(b1-4)GlcNAc(b1-3)Gal(b1-4)GlcNAc(b1-3)Gal(b1-4)GlcNAc(b1-2)Man(a1-6)]Man(b1-4)GlcNAc(b1-4)[Fuc(a1-6)]GlcNAc
Outline: as §1

[12] = biological target: Gal(b1-4)GlcNAc(b1-3)Gal(b1-4)GlcNAc(b1-3)Gal(b1-4)GlcNAc(b1-3)Gal(b1-4)GlcNAc(b1-3)Gal(b1-4)GlcNAc(b1-2)[Gal(b1-4)GlcNAc(b1-3)Gal(b1-4)GlcNAc(b1-3)Gal(b1-4)GlcNAc(b1-3)Gal(b1-4)GlcNAc(b1-3)Gal(b1-4)GlcNAc(b1-6)]Man(a1-6)[Gal(b1-4)GlcNAc(b1-3)Gal(b1-4)GlcNAc(b1-3)Gal(b1-4)GlcNAc(b1-3)Gal(b1-4)GlcNAc(b1-3)Gal(b1-4)GlcNAc(b1-2)Man(a1-3)]Man(b1-4)GlcNAc(b1-4)[Fuc(a1-6)]GlcNAc
Outline: as §1

[13] = biological target: Gal(b1-4)GlcNAc(b1-3)Gal(b1-4)GlcNAc(b1-3)Gal(b1-4)GlcNAc(b1-3)Gal(b1-4)GlcNAc(b1-3)Gal(b1-4)GlcNAc(b1-3)Gal(b1-4)GlcNAc(b1-2)Man(a1-3)[Gal(b1-4)GlcNAc(b1-3)Gal(b1-4)GlcNAc(b1-3)Gal(b1-4)GlcNAc(b1-3)Gal(b1-4)GlcNAc(b1-3)Gal(b1-4)GlcNAc(b1-3)Gal(b1-4)GlcNAc(b1-2)Man(a1-6)]Man(b1-4)GlcNAc(b1-4)GlcNAc
Outline: as §1

[14] = biological target: Gal(b1-4)GlcNAc(b1-3)Gal(b1-4)GlcNAc(b1-3)GalNAc
Outline: as §1

[15] = biological target: Gal(b1-4)GlcNAc(b1-3)Gal(b1-4)GlcNAc(b1-3)[Gal(b1-4)GlcNAc(b1-3)Gal(b1-4)GlcNAc(b1-6)]GalNAc
Outline: as §1

[16] = biological target: Gal(b1-4)GlcNAc(b1-3)Gal(b1-4)GlcNAc(b1-6)[Gal(b1-3)]GalNAc
Outline: as §1

[17] = biological target: Gal(b1-4)GlcNAc(b1-3)Gal(b1-4)[Fuc(a1-3)]GlcNAc(b1-3)Gal(b1-4)[Fuc(a1-3)]GlcNAc
Outline: as §1

[18] = biological target: Gal(b1-4)GlcNAc(b1-3)GalNAc
Outline: as §1

[19] = biological target: Gal(b1-4)GlcNAc(b1-3)[Fuc(a1-3)GlcNAc(b1-6)]Gal(b1-4)Glc
Outline: as §1

[20] = biological target: Gal(b1-4)GlcNAc(b1-3)[Gal(b1-4)GlcNAc(b1-6)]Gal(b1-4)GlcNAc
Outline: as §1

[21] = biological target: Gal(b1-4)GlcNAc(b1-3)[GlcNAc(b1-6)]Gal(b1-4)GlcNAc
Outline: as §1

[22] = biological target: Gal(b1-4)GlcNAc(b1-6)Gal(b1-4)GlcNAc
Outline: as §1

[23] = biological target: Gal(b1-4)GlcNAc(b1-6)Gal(b1-4)GlcNAc(b1-6)GalNAc
Outline: as §1

[24] = biological target: Gal(b1-4)GlcNAc(b1-6)GalNAc
Outline: as §1

[25] = biological target: Gal(b1-4)GlcNAc(b1-6)[Gal(b1-3)]GalNAc
Outline: as §1

[26] = biological target: Gal(b1-4)GlcNAc(b1-6)[Gal(b1-4)GlcNAc(b1-3)]GalNAc
Outline: as §1

[27] = biological target: Gal(b1-4)GlcNAc6P
Outline: as §1

[28] = biological target: Gal(b1-6)Gal
Outline: as §1

[29] = biological target: Gal3S(b1-3)GalNAc
Outline: as §1

[30] = biological target: Gal3S(b1-3)GlcNAc
Outline: as §1

[31] = biological target: Gal3S(b1-3)[Fuc(a1-4)]GlcNAc
Outline: as §1

[32] = biological target: Gal3S(b1-4)Glc
Outline: as §1

[33] = biological target: Gal3S(b1-4)Glc6S
Outline: as §1

[34] = biological target: Gal3S(b1-4)GlcNAc
Outline: as §1

[35] = biological target: Gal3S(b1-4)GlcNAc6S
Outline: as §1

[36] = biological target: Gal3S(b1-4)[Fuc(a1-3)]Glc
Outline: as §1

[37] = biological target: Gal3S(b1-4)[Fuc(a1-3)]Glc6S
Outline: as §1

B1: MGL6A (Homo sapiens) (protein)
chain: MTRTYENFQYLENKVKVQGFKNGPLPLQSLLQRLCSGPCHLLLSLGLGLLLLVIICVVGFQNSKFQRDLVTLRTDFSNFTSNTVAEIQALTSQGSSLEETIASLKAEVEGFKQERQAVHSEMLLRVQQLVQDLKKLTCQVATLNNNGEEASTEGTCCPVNWVEHQDSCYWFSHSGMSWAEAEKYCQLKNAHLVVINSREEQNFVQKYLGSAYTWMGLSDPEGAWKWVDGTDYATGFQNWKPGQPDDWQGHGLGGGEDCAHFHPDGRWNDDVCQRPYHWVCEAGLGQTSQESH
glycan array binding signal (z-score) [1]: -0.161
glycan array binding signal (z-score) [2]: -0.238
glycan array binding signal (z-score) [3]: -0.296
glycan array binding signal (z-score) [4]: -0.215
glycan array binding signal (z-score) [5]: -0.231
glycan array binding signal (z-score) [6]: -0.219
glycan array binding signal (z-score) [7]: -0.227
glycan array binding signal (z-score) [8]: -0.198
glycan array binding signal (z-score) [9]: -0.228
glycan array binding signal (z-score) [10]: -0.234
glycan array binding signal (z-score) [11]: -0.193
glycan array binding signal (z-score) [12]: -0.193
glycan array binding signal (z-score) [13]: -0.241
glycan array binding signal (z-score) [14]: -0.303
glycan array binding signal (z-score) [15]: -0.263
glycan array binding signal (z-score) [16]: -0.265
glycan array binding signal (z-score) [17]: -0.26
glycan array binding signal (z-score) [18]: -0.309
glycan array binding signal (z-score) [19]: -0.257
glycan array binding signal (z-score) [20]: -0.108
glycan array binding signal (z-score) [21]: -0.327
glycan array binding signal (z-score) [22]: -0.304
glycan array binding signal (z-score) [23]: -0.256
glycan array binding signal (z-score) [24]: 4.67
glycan array binding signal (z-score) [25]: 0.17
glycan array binding signal (z-score) [26]: -0.264
glycan array binding signal (z-score) [27]: -0.264
glycan array binding signal (z-score) [28]: -0.283
glycan array binding signal (z-score) [29]: -0.273
glycan array binding signal (z-score) [30]: -0.648
glycan array binding signal (z-score) [31]: -0.287
glycan array binding signal (z-score) [32]: -0.172
glycan array binding signal (z-score) [33]: -0.092
glycan array binding signal (z-score) [34]: -0.148
glycan array binding signal (z-score) [35]: -0.372
glycan array binding signal (z-score) [36]: -0.3
glycan array binding signal (z-score) [37]: -0.241
